This note sets out measurements from article PMC12820563, “FoxP3 forms a head-to-head dimer in vivo and stabilizes its multimerization on adjacent microsatellites”.

The other results are listed elsewhere or left out.

The experiment addresses T1, MBP-FoxP1dN (Mus musculus, UniProt P58462 326-579).
T1 sequence: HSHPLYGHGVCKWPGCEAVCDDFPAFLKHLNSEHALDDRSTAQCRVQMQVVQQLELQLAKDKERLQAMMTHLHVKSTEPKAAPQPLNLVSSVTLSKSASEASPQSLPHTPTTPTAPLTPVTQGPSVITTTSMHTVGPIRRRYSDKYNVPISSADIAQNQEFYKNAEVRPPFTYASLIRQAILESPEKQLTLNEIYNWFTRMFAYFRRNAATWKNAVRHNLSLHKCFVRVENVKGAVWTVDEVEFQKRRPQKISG
In words: PD-seq (MBP pull-down with sequencing); 20 mM Tris-HCl pH 7.5, 100 mM NaCl, 1.5 mM MgCl2, 0.4 uM protein, 0.1 uM dsDNA library, 30 min, room temperature, amylose pull-down; high values mean tight binding. To be noted: protein: recombinant; tags: His6-MBP; chain copies: 2; dsDNA, one strand shown. The method in brief: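 Amylose resin was used to capture complexes formed during 30 min at room temperature in Tris pH 7.5 buffer with NaCl and MgCl2 between 0.4 µM His6-MBP-tagged mouse FoxP3 or FoxP1 fragment lacking the N-terminus, expressed in E. coli, and 0.1 µM Klenow-filled double-stranded degenerate DNA library. After three washes, the DNA was released with proteinase K, barcoded by PCR and sequenced on Illumina. Binding is pooled-replicate reads-per-million enrichment, pull-down over input.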
For the sequence “GATGATTGTTCTCCCAGCTGATGAATTTAGATGTTCGAGTAAACAAATTTTCCTAATCTTTCTGTTCAAGCGCCATCTAC”, the binding signal was 1.19 RPM ratio (pull-down/input).

Take “GATGATTGTTCTCCCAGCTGATGAATTGGGATTTTCGAGTAAACAAATTTTCCTAATCTTTCTGTTCAAGCGCCATCTAC”: the binding signal is 1.01 RPM ratio (pull-down/input). As to “GATGATTGTTCTCCCAGCTGATGAATTTGGCTATTCGAGTAAACAAATTTTCCTAATCTTTCTGTTCAAGCGCCATCTAC”, the binding signal is 0.942 RPM ratio (pull-down/input). Next, “GATGATTGTTCTCCCAGCTGATGAATTACAAACTTCGAGTAAACAAATTTTCCTAATCTTTCTGTTCAAGCGCCATCTAC”: 1.43 RPM ratio (pull-down/input). Next, “GATGATTGTTCTCCCAGCTGATGAATTTCCTTTGTCGAGTAAACAAATTTTCCTAATCTTTCTGTTCAAGCGCCATCTAC”: 0.853 RPM ratio (pull-down/input).

In the case of “GATGATTGTTCTCCCAGCTGATGAATTCATGCGGTCGAGTAAACAAATTTTCCTAATCTTTCTGTTCAAGCGCCATCTAC”, the binding signal is 0.86 RPM ratio (pull-down/input).

Take “GATGATTGTTCTCCCAGCTGATGAATTGTACGTCTCGAGTAAACAAATTTTCCTAATCTTTCTGTTCAAGCGCCATCTAC”: the binding signal was 0.926 RPM ratio (pull-down/input). With “GATGATTGTTCTCCCAGCTGATGAATTTAGCTGGTCGAGTAAACAAATTTTCCTAATCTTTCTGTTCAAGCGCCATCTAC” the figure was 0.885 RPM ratio (pull-down/input); with “GATGATTGTTCTCCCAGCTGATGAATTTCCCCTTTCGAGTAAACAAATTTTCCTAATCTTTCTGTTCAAGCGCCATCTAC”, 0.804 RPM ratio (pull-down/input); with “GATGATTGTTCTCCCAGCTGATGAATTTAACGCCTCGAGTAAACAAATTTTCCTAATCTTTCTGTTCAAGCGCCATCTAC”, 0.91 RPM ratio (pull-down/input). With “GATGATTGTTCTCCCAGCTGATGAATTTGAAACATCGAGTAAACAAATTTTCCTAATCTTTCTGTTCAAGCGCCATCTAC” the figure was 1.06 RPM ratio (pull-down/input); with “GATGATTGTTCTCCCAGCTGATGAATTCACTAGTTCGAGTAAACAAATTTTCCTAATCTTTCTGTTCAAGCGCCATCTAC”, 0.902 RPM ratio (pull-down/input). Turning to “GATGATTGTTCTCCCAGCTGATGAATTTCGCAGATCGAGTAAACAAATTTTCCTAATCTTTCTGTTCAAGCGCCATCTAC”, the binding signal is 0.774 RPM ratio (pull-down/input). Next, “GATGATTGTTCTCCCAGCTGATGAATTATTCTGATCGAGTAAACAAATTTTCCTAATCTTTCTGTTCAAGCGCCATCTAC”: 0.97 RPM ratio (pull-down/input); “GATGATTGTTCTCCCAGCTGATGAATTTTAAGGGTCGAGTAAACAAATTTTCCTAATCTTTCTGTTCAAGCGCCATCTAC”: 0.826 RPM ratio (pull-down/input); “GATGATTGTTCTCCCAGCTGATGAATTATATTGGTCGAGTAAACAAATTTTCCTAATCTTTCTGTTCAAGCGCCATCTAC”: 1.46 RPM ratio (pull-down/input). With “GATGATTGTTCTCCCAGCTGATGAATTTCTACGTTCGAGTAAACAAATTTTCCTAATCTTTCTGTTCAAGCGCCATCTAC” the figure was 0.876 RPM ratio (pull-down/input); with “GATGATTGTTCTCCCAGCTGATGAATTTGAGAAGTCGAGTAAACAAATTTTCCTAATCTTTCTGTTCAAGCGCCATCTAC”, 0.824 RPM ratio (pull-down/input).
